# Out of some 310,000 compounds screened, about 14,000 (4.5%) showed an effect of 50% or more. Effects have a minus sign here. Some of the results follow.
# Molecular target: human ether-à-go-go-related gene (hERG) potassium channel (human, UniProt Q12809)
# Experiment: primary screen, population patch clamp on CHO cells stably expressing hERG
# 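Further: peak tail current of the secondary pulse compared with the same well before compound.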
# Sequence of human ether-à-go-go-related gene (hERG) potassium channel (Q12809 whole entry, looked up): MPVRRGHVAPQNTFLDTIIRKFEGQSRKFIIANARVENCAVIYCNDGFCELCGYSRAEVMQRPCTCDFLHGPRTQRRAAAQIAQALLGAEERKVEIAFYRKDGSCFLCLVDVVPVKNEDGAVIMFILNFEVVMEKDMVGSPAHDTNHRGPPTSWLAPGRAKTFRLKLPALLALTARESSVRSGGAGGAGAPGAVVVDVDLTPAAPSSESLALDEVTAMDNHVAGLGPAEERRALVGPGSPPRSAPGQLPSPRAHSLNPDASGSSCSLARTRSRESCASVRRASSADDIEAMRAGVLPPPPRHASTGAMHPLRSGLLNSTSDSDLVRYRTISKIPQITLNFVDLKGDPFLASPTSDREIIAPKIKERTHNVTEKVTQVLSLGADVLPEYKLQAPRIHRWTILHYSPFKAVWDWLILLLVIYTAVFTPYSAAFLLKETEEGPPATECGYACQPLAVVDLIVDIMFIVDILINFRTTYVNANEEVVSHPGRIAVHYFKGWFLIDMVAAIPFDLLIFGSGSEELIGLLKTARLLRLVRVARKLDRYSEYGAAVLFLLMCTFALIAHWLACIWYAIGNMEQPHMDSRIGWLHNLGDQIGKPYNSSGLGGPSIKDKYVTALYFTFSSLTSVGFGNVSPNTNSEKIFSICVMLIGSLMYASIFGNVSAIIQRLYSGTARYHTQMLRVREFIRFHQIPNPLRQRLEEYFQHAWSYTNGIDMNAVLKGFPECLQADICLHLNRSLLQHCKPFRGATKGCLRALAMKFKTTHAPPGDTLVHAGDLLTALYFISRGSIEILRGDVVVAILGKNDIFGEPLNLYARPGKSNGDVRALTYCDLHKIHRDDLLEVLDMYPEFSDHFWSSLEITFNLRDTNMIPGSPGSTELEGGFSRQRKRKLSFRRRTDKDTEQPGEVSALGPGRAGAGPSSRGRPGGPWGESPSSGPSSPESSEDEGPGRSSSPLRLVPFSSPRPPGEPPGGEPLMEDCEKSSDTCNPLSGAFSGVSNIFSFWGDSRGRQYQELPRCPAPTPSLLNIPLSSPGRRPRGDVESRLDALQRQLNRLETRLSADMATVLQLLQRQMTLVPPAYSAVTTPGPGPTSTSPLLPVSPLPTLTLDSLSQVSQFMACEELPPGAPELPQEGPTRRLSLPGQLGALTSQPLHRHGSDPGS
row,SMILES,"hERG current change (%, negative = inhibition) at 10uM"
1,Cc1ccc(C(=O)NC(=S)Nc2ccc(N3CCOCC3)cc2)cc1,8.78%
2,Cc1ccc(C2(C)NC(=O)N(CC(=O)N3CCN(S(=O)(=O)c4ccc(Cl)s4)CC3)C2=O)cc1 (stereo not drawn),-58%
3,O=C(Nc1ccc([N+](=O)[O-])cc1)c1ccccc1,10.7%
4,CN(CC(=O)NCCc1ccc(F)cc1)Cc1cccc(Cl)c1,-27.7%
5,CCOC(=O)CSc1nc2cccnc2n1C,13.1%
6,CCc1c(C)nc2ncnn2c1NCc1cccs1,-11.7%
7,O=S(=O)(c1ccc(OC(F)(F)F)cc1)N1CCC(O)(c2cccc(C(F)(F)F)c2)CC1,-4.35%
8,O=C(Cn1c(=O)sc2ccccc21)NCc1ccco1,0.0638%
9,O=C1OC(N2CCN(C(=O)C3CCCO3)CC2)c2ccccc21 (stereo not drawn),0.234%
10,Cc1cnc(C(=O)OCC(=O)Nc2ccc3c(c2)OCCO3)cn1,10.3%
11,CCn1c(=O)c2ccccc2n(CC(=O)NCCC2=CCCCC2)c1=O,17%
12,CCC(C)Sc1nc(C)nc2c1c(=O)n(C)c(=O)n2C (stereo not drawn),-26.5%
13,O=C1CCCc2nc(N3CCc4ccccc43)ncc21,-3.87%
14,COc1ccc(-c2ccc(SCC(=O)N3CC(=O)Nc4ccccc43)nn2)cc1,-48.2%
15,COc1ccccc1-c1cc(C(=O)N2CCN(S(=O)(=O)c3ccc(C)cc3)CC2)[nH]n1,3.99%
16,Cc1ccc(S(=O)(=O)N2CCN(C(=O)c3ccc4ccccc4n3)CC2)c(C)c1,-34.9%
17,Cc1ccc(CNC(=O)C2CCCN(c3nc4ccsc4c(=O)s3)C2)cc1 (stereo not drawn),-4.21%
18,Cc1ccc(CNC(=O)CN(C)S(=O)(=O)c2ccc3c(c2)n(C)c(=O)c(=O)n3C)cc1,13.7%
19,O=C1CCC(C(=O)Nc2nnc(C3CC3)s2)=NN1,29.8%

row,SMILES,"hERG current change (%, negative = inhibition) at 10uM"
1,Cc1ccc(Cn2c(C(=O)O)cc3sccc32)cc1,-3.12%
2,Cc1ccc2ncc(NC(=O)c3ccc(F)cc3)c(=O)n2c1,-12.6%
3,O=C(O)c1ccc2c(c1)C(=O)N(c1ccc(Cl)cn1)C2=O,2.65%
4,COc1ccc(-n2c(SCC(=O)Nc3cc(C)on3)nc3c([nH]c4ccccc43)c2=O)cc1,8.92%
5,Cc1nnc(-c2ccccc2)[nH]c1=O,18.7%
6,CCOC(=O)C(CCCOc1cccc(CC)c1)C(=O)OCC,5.61%
7,NS(=O)(=O)c1ccc(CCNc2ccc(C(F)(F)F)cn2)cc1,-7.34%
8,COC(=O)[C@@H]1Cc2c([nH]c3ccccc23)C2CCC(=O)N21 (stereo partly drawn),18.5%
9,O=C(CSc1nc2ccccc2c(=O)[nH]1)Nc1ccc(N2CCOCC2)c(Cl)c1,12.7%
10,Cc1ccc(-c2n[nH]c(=S)n2/N=C/c2sccc2C)cc1,17.4%
11,O=C(NC1CCCCCC1)c1ccc(-n2cnnc2)cc1,8.15%
12,Cc1ccc(SCC(=O)O/N=C(\N)c2ccncc2)cc1,-8.1%
13,CCCC(C(=O)NC1CCCC1)N(C(=O)Cn1nnc(-c2ccc(C)o2)n1)C1CCCC1 (stereo not drawn),-15.3%
14,CC(Sc1nc2ccccc2c(=O)n1C)C(=O)NC1CCCCC1C (stereo not drawn),5.87%
15,Cc1nc(NC(=O)C2CC2)sc1C(=O)Nc1ccc(Br)cc1,45.5%
16,O=C(c1ccccc1)N1CCC(c2nc3c(nnn3Cc3ccccc3Cl)c(=O)[nH]2)CC1,10.1%
17,O=C(C1CCCN(S(=O)(=O)c2cccc3nonc23)C1)N1CCN(c2ccccc2)CC1 (stereo not drawn),-42.3%
18,Cc1cccc(NC(=O)CCS(=O)(=O)c2ccc(Br)cc2)c1,-9.57%
19,Cc1c(-c2ccccn2)c(=O)[nH]n1-c1ccc(F)cc1,8.75%

row,SMILES,"hERG current change (%, negative = inhibition) at 10uM"
1,C=CCNC(=S)NNC(=O)c1cccn(Cc2ccc(Cl)cc2)c1=O,-27.1%
2,O=[N+]([O-])c1cccnc1N1CCN(c2ccccc2F)CC1,-6.76%
3,CN(C(=O)CC1C(=O)NCCN1CC1CCCCC1)C1CCOCC1 (stereo not drawn),16.1%
4,Cc1ccc(C(=O)COC(=O)C2CC(=O)N(c3nc(-c4ccccc4)cs3)C2)cc1C (stereo not drawn),-2.72%
5,CC(c1ccccc1)N1CNc2c(c(=O)n(C)c(=O)n2C)C1 (stereo not drawn),8.25%
6,CC(=O)n1nc(-c2ccncc2)nc1SCC(=O)Nc1cccc(Cl)c1,21.2%
7,COc1ccc(CN(C)C(=O)C2CSC3(C)CCC(=O)N23)cc1 (stereo not drawn),-3.5%
8,Cc1ccc(Sc2c(C(=O)Nc3ccc(F)cc3F)c(C(F)(F)F)nn2C)cc1,16.6%
9,O=C1N=C(N2C=CC(=C3C=CNC=C3)C=C2)/C(=C/N=NC(=O)c2ccccc2)S1,30.3%
10,N#Cc1ccccc1NC(=O)C(=O)NCC1CCCN1S(=O)(=O)c1cccs1 (stereo not drawn),-6.44%
11,COc1ccc(N2CCN(C(=O)c3ccc(-c4ccccc4)cc3)CC2)cc1,26.3%
12,NNC(=O)/C(=C\c1cccs1)NC(=O)c1ccccc1,7.19%
13,COc1ccc(C(CNC(=O)CSc2ccccc2F)N2CCOCC2)cc1 (stereo not drawn),10.7%
14,Cc1ccc(S(=O)(=O)Nc2c(NC3CCCCC3)c3ccccc3oc2=O)c(C)c1,-19.6%
15,NS(=O)(=O)c1ccc(CNC(=O)c2ccc3ccccc3n2)cc1,13.6%
16,COc1ccccc1-c1nnc(SCc2nc3ccccc3[nH]2)n1C,-12.6%
17,CCN1C(=O)c2cccc3c(S(=O)(=O)Nc4ncccc4C)ccc1c23,-9.98%
18,COc1ccc(/C=C(\C#N)C(=O)Nc2ccccn2)cc1,13.1%
19,CCCN1/C(=C(/C#N)C2=NS(=O)(=O)c3ccccc32)N(C)c2ccccc21,-19.3%
